From patent US7619094B2, “Ketoamides with cyclic P4's as inhibitors of NS3 serine protease of hepatitis C virus” (Schering Corporation, priority 2004, dated 2009) come the findings set out here.

In general, Ki refers to the equilibrium dissociation constant of an inhibitor or competing ligand from its target.

This assay addresses Recombinant heterodimeric HCV NS3/NS4A protease (strain 1a) (Hepatitis C virus genotype 1a, UniProt P27958). As to the kind of experiment: HCV continuous assay (spectrophotometric HCV NS3/NS4A serine protease inhibition assay). It counts as biochemical, HCV (strain 1a). The conditions noted are these: Table 2; ranges of Ki* values in HCV continuous assay.
As to `CNC(=O)C(=O)C(CC1CC1)NC(=O)[C@@H]1[C@@H]2[C@H](CN1C(=O)[C@@H](NC(=O)N[C@H](CN1C(=O)c3ccncc3C1=O)C(C)(C)C)C(C)(C)C)C2(C)C` (stereo partly shown) [Compound 5657], the Ki was no more than 0.05 µM.
Next, `C=CCNC(=O)C(=O)C(CC1CC1)NC(=O)[C@@H]1[C@@H]2[C@H](CN1C(=O)[C@@H](NC(=O)N[C@H](CN1C(=O)c3ccncc3C1=O)C(C)(C)C)C(C)(C)C)C2(C)C` (stereo partly shown) [Compound 5658]: no more than 0.05 µM; `CC(C)(C)[C@H](NC(=O)N[C@H](CN1C(=O)c2ccncc2C1=O)C(C)(C)C)C(=O)N1C[C@H]2[C@@H]([C@H]1C(=O)NC(CC1CCC1)C(=O)C(N)=O)C2(C)C` (stereo partly shown) [Compound 5659]: no more than 0.05 µM; `CC(C)(C)[C@H](NC(=O)N[C@H](CN1C(=O)c2ccncc2C1=O)C(C)(C)C)C(=O)N1C[C@H]2[C@@H]([C@H]1C(=O)NC(CC1CC1)C(=O)C(N)=O)C2(C)C` (stereo partly shown) [Compound 5660]: no more than 0.05 µM.
As for `CCCC(NC(=O)[C@@H]1[C@@H]2[C@H](CN1C(=O)[C@@H](NC(=O)N[C@H](CN1C(=O)c3ccncc3C1=O)C(C)(C)C)C(C)(C)C)C2(C)C)C(=O)C(N)=O` (stereo partly shown) [Compound 5661], the Ki is no more than 0.05 µM.
Next, `C=CCNC(=O)C(=O)C(CCC(F)(F)F)NC(=O)[C@@H]1[C@@H]2[C@H](CN1C(=O)[C@@H](NC(=O)N[C@H](CN1CCCCC1=O)C(C)(C)C)C(C)(C)C)C2(C)C` (stereo partly shown) [Compound 5662]: no more than 0.05 µM.
The value for `C=CCNC(=O)C(=O)C(CCCC)NC(=O)[C@@H]1[C@@H]2[C@H](CN1C(=O)[C@@H](NC(=O)N[C@H](CN1CCCNC1=O)C(C)(C)C)C(C)(C)C)C2(C)C` (stereo partly shown) [Compound 5663] was no more than 0.05 µM; that for `C=CCNC(=O)C(=O)C(CCC)NC(=O)[C@@H]1[C@@H]2[C@H](CN1C(=O)[C@@H](NC(=O)N[C@H](CN1CCCNC1=O)C(C)(C)C)C(C)(C)C)C2(C)C` (stereo partly shown) [Compound 5664] was no more than 0.05 µM; that for `CC(C)(C)[C@H](NC(=O)N[C@H](CN1CCCNC1=O)C(C)(C)C)C(=O)N1C[C@H]2[C@@H]([C@H]1C(=O)NC(CC1CC1)C(=O)C(N)=O)C2(C)C` (stereo partly shown) [Compound 5667] was no more than 0.05 µM.
Next, `C#CCCC(NC(=O)[C@@H]1[C@@H]2[C@H](CN1C(=O)[C@@H](NC(=O)N[C@H](CN1C(=O)c3ccccc3C1=O)C(C)(C)C)C(C)(C)C)C2(C)C)C(=O)C(=O)NCC=C` (stereo partly shown) [Compound 5669]: no more than 0.05 µM; `C=CCNC(=O)C(=O)C(CC1CC1)NC(=O)[C@@H]1[C@@H]2[C@H](CN1C(=O)[C@@H](NC(=O)N[C@H](CN1C(=O)CCCC1=O)C(C)(C)C)C(C)(C)C)C2(C)C` (stereo partly shown) [Compound 5670]: no more than 0.05 µM; `C=CCNC(=O)C(=O)C(CCC)NC(=O)[C@@H]1[C@@H]2[C@H](CN1C(=O)[C@@H](NC(=O)N[C@H](CN1C(=O)CCCC1=O)C(C)(C)C)C(C)(C)C)C2(C)C` (stereo partly shown) [Compound 5671]: no more than 0.05 µM.
As for `C=CCNC(=O)C(=O)C(CC1CCC1)NC(=O)[C@@H]1[C@@H]2[C@H](CN1C(=O)[C@@H](NC(=O)N[C@H](CN1C(=O)CCCC1=O)C(C)(C)C)C(C)(C)C)C2(C)C` (stereo partly shown) [Compound 5672], the inhibitory constant (Ki) is no more than 0.05 µM.
Next, `C=CCNC(=O)C(=O)C(CCCC)NC(=O)[C@@H]1[C@@H]2[C@H](CN1C(=O)[C@@H](NC(=O)N[C@H](CN1C(=O)CCCC1=O)C(C)(C)C)C(C)(C)C)C2(C)C` (stereo partly shown) [Compound 5673]: no more than 0.05 µM; `CC(C)(C)[C@H](NC(=O)N[C@H](CN1C(=O)CCCC1=O)C(C)(C)C)C(=O)N1C[C@H]2[C@@H]([C@H]1C(=O)NC(CC1CC1)C(=O)C(N)=O)C2(C)C` (stereo partly shown) [Compound 5674]: no more than 0.05 µM.
Regarding `CC(C)(C)[C@H](NC(=O)N[C@H](CN1C(=O)CCCC1=O)C(C)(C)C)C(=O)N1C[C@H]2[C@@H]([C@H]1C(=O)NC(CC1CCC1)C(=O)C(N)=O)C2(C)C` (stereo partly shown) [Compound 5675], the Ki is no more than 0.05 µM.
Next, `CCCCC(NC(=O)[C@@H]1[C@@H]2[C@H](CN1C(=O)[C@@H](NC(=O)N[C@H](CN1C(=O)CCCC1=O)C(C)(C)C)C(C)(C)C)C2(C)C)C(=O)C(N)=O` (stereo partly shown) [Compound 5676]: no more than 0.05 µM; `C=CCNC(=O)C(=O)C(CCCC)NC(=O)[C@@H]1[C@@H]2[C@H](CN1C(=O)[C@@H](NC(=O)NC1(CN3C(=O)c4ccccc4C3=O)CCCCC1)C(C)(C)C)C2(C)C` (stereo partly shown) [Compound 5677]: greater than 0.05 µM.
The value for `C=CCNC(=O)C(=O)C(CCC)NC(=O)[C@@H]1[C@@H]2[C@H](CN1C(=O)[C@@H](NC(=O)NC1(CN3C(=O)c4ccccc4C3=O)CCCCC1)C(C)(C)C)C2(C)C` (stereo partly shown) [Compound 5678] was no more than 0.05 µM.
Next, `C=CCNC(=O)C(=O)C(CC1CC1)NC(=O)[C@@H]1[C@@H]2[C@H](CN1C(=O)[C@@H](NC(=O)NC1(CN3C(=O)c4ccccc4C3=O)CCCCC1)C(C)(C)C)C2(C)C` (stereo partly shown) [Compound 5679]: greater than 0.05 µM; `CCCCC(NC(=O)[C@@H]1[C@@H]2[C@H](CN1C(=O)[C@@H](NC(=O)NC1(CN3C(=O)c4ccccc4C3=O)CCCCC1)C(C)(C)C)C2(C)C)C(=O)C(N)=O` (stereo partly shown) [Compound 5680]: no more than 0.05 µM.
Regarding `CC(C)(C)[C@H](NC(=O)NC1(CN2C(=O)c3ccccc3C2=O)CCCCC1)C(=O)N1C[C@H]2[C@@H]([C@H]1C(=O)NC(CC1CC1)C(=O)C(N)=O)C2(C)C` (stereo partly shown) [Compound 5681], the Ki is no more than 0.05 µM.
Next, `CC(C)(C)[C@H](NC(=O)NC1(CN2C(=O)c3ccccc3C2=O)CCCCC1)C(=O)N1C[C@H]2[C@@H]([C@H]1C(=O)NC(CC1CCC1)C(=O)C(N)=O)C2(C)C` (stereo partly shown) [Compound 5682]: no more than 0.05 µM.
The value for `C=CCNC(=O)C(=O)C(CCCC)NC(=O)[C@@H]1[C@@H]2[C@H](CN1C(=O)[C@@H](NC(=O)N[C@H](CN1CCCN(C)C1=O)C(C)(C)C)C(C)(C)C)C2(C)C` (stereo partly shown) [Compound 5683] was greater than 0.05 µM; that for `C=CCNC(=O)C(=O)C(CC1CC1)NC(=O)[C@@H]1[C@@H]2[C@H](CN1C(=O)[C@@H](NC(=O)N[C@H](CN1CCCN(C)C1=O)C(C)(C)C)C(C)(C)C)C2(C)C` (stereo partly shown) [Compound 5684] was greater than 0.05 µM.
Next, `C=CCNC(=O)C(=O)C(CCC)NC(=O)[C@@H]1[C@@H]2[C@H](CN1C(=O)[C@@H](NC(=O)N[C@H](CN1CCCN(C)C1=O)C(C)(C)C)C(C)(C)C)C2(C)C` (stereo partly shown) [Compound 5685]: greater than 0.05 µM; `CN1CCCN(C[C@@H](NC(=O)N[C@H](C(=O)N2C[C@H]3[C@@H]([C@H]2C(=O)NC(CC2CC2)C(=O)C(N)=O)C3(C)C)C(C)(C)C)C(C)(C)C)C1=O` (stereo partly shown) [Compound 5686]: no more than 0.05 µM; `C=CCNC(=O)C(=O)C(CCC)NC(=O)[C@@H]1[C@@H]2[C@H](CN1C(=O)[C@@H](NC(=O)N[C@H](CN1CCCN(C)C1=O)C(C)(C)C)C1CCCCC1)C2(C)C` (stereo partly shown) [Compound 5687]: greater than 0.05 µM.
`C=CCNC(=O)C(=O)C(CCC)NC(=O)[C@@H]1[C@@H]2[C@H](CN1C(=O)[C@@H](NC(=O)N[C@H](CN1C(=O)COCC1=O)C(C)(C)C)C(C)(C)C)C2(C)C` (stereo partly shown) [Compound 5689]: the Ki is no more than 0.05 µM.
The value for `C=CCNC(=O)C(=O)C(CCCC)NC(=O)[C@@H]1[C@@H]2[C@H](CN1C(=O)[C@@H](NC(=O)N[C@H](CN1C(=O)COCC1=O)C(C)(C)C)C(C)(C)C)C2(C)C` (stereo partly shown) [Compound 5690] was no more than 0.05 µM; that for `C=CCNC(=O)C(=O)C(CC1CC1)NC(=O)[C@@H]1[C@@H]2[C@H](CN1C(=O)[C@@H](NC(=O)N[C@H](CN1C(=O)COCC1=O)C(C)(C)C)C(C)(C)C)C2(C)C` (stereo partly shown) [Compound 5691] was no more than 0.05 µM.
The value for `C=CCNC(=O)C(=O)C(CCC(F)(F)F)NC(=O)[C@@H]1[C@@H]2[C@H](CN1C(=O)[C@@H](NC(=O)N[C@H](CN1CCCN(C)C1=O)C(C)(C)C)C(C)(C)C)C2(C)C` (stereo partly shown) [Compound 5692] was greater than 0.05 µM.
The value for `C=CCNC(=O)C(=O)C(CC1CCC1)NC(=O)[C@@H]1[C@@H]2[C@H](CN1C(=O)[C@@H](NC(=O)N[C@H](CN1CCCN(C)C1=O)C(C)(C)C)C(C)(C)C)C2(C)C` (stereo partly shown) [Compound 5693] was greater than 0.05 µM; that for `C=CCNC(=O)C(=O)C(CC1CCC1)NC(=O)[C@@H]1[C@@H]2[C@H](CN1C(=O)[C@@H](NC(=O)N[C@H](CN1C(=O)COCC1=O)C(C)(C)C)C(C)(C)C)C2(C)C` (stereo partly shown) [Compound 5694] was no more than 0.05 µM; that for `C=CCNC(=O)C(=O)C(CCC)NC(=O)[C@@H]1[C@@H]2[C@H](CN1C(=O)[C@@H](NC(=O)N[C@H](CN1CCCOC1=O)C(C)(C)C)C(C)(C)C)C2(C)C` (stereo partly shown) [Compound 5695] was no more than 0.05 µM.
For the compound `C#CCCC(NC(=O)[C@@H]1[C@@H]2[C@H](CN1C(=O)[C@@H](NC(=O)NC1(CN3C(=O)c4ccccc4C3=O)CCCCC1)C(C)(C)C)C2(C)C)C(=O)C(=O)NCC=C` (stereo partly shown) [Compound 5696], the Ki was no more than 0.05 µM.
The value for `CC(C)(C)[C@H](NC(=O)N[C@H](CN1C(=O)COCC1=O)C(C)(C)C)C(=O)N1C[C@H]2[C@@H]([C@H]1C(=O)NC(CC1CCC1)C(=O)C(N)=O)C2(C)C` (stereo partly shown) [Compound 5697] was no more than 0.05 µM.
For `CC(C)(C)[C@H](NC(=O)N[C@H](CN1CCCOC1=O)C(C)(C)C)C(=O)N1C[C@H]2[C@@H]([C@H]1C(=O)NC(CC1CC1)C(=O)C(N)=O)C2(C)C` (stereo partly shown) [Compound 5698], the Ki was no more than 0.05 µM.
`CCCCC(NC(=O)[C@@H]1[C@@H]2[C@H](CN1C(=O)[C@@H](NC(=O)N[C@H](CN1C(=O)COCC1=O)C(C)(C)C)C(C)(C)C)C2(C)C)C(=O)C(N)=O` (stereo partly shown) [Compound 5699]: the Ki is no more than 0.05 µM.
Next, `CC(C)(C)[C@H](NC(=O)N[C@H](CN1C(=O)COCC1=O)C(C)(C)C)C(=O)N1C[C@H]2[C@@H]([C@H]1C(=O)NC(CC1CC1)C(=O)C(N)=O)C2(C)C` (stereo partly shown) [Compound 5701]: no more than 0.05 µM; `C=CCNC(=O)C(=O)C(CC1CC1)NC(=O)[C@@H]1[C@@H]2[C@H](CN1C(=O)[C@@H](NC(=O)N[C@H](CN1CCCOC1=O)C(C)(C)C)C(C)(C)C)C2(C)C` (stereo partly shown) [Compound 5702]: no more than 0.05 µM; `C=CCNC(=O)C(=O)C(CCCC)NC(=O)[C@@H]1[C@@H]2[C@H](CN1C(=O)[C@@H](NC(=O)N[C@H](CN1CCCOC1=O)C(C)(C)C)C(C)(C)C)C2(C)C` (stereo partly shown) [Compound 5703]: no more than 0.05 µM.
On to `C=CCNC(=O)C(=O)C(CCC)NC(=O)[C@@H]1[C@@H]2[C@H](CN1C(=O)[C@@H](NC(=O)N[C@H](CN1C(=O)CCCC1=O)C(C)(C)C)C1CCCCC1)C2(C)C` (stereo partly shown) [Compound 5704], for which the Ki was no more than 0.05 µM.
